Reference: PubChem BioAssay AID488969 (Vanderbilt High Throughput Screening Facility, 2010)
Over roughly 110,000 compounds, “z-score” has its median near -0.1; the highest 2% begin near 2. Some of the results follow.

biological target: Metabotropic glutamate receptor 8 (Rattus norvegicus) (UniProt P70579); test: mGluR8 Gi/Go-coupled signaling modulation – cell-based, rat, thallium flux, HTS, primary screen (AID 488969); conditions: HEK293 rat mGluR8, GIRK (G protein-gated inwardly rectifying potassium channel) thallium flux, FluoZin2; at 10 µM; stronger effect = higher value; submaximal glutamate (EC20) added with thallium
UniProt P70579, sequence (P70579 whole entry, looked up): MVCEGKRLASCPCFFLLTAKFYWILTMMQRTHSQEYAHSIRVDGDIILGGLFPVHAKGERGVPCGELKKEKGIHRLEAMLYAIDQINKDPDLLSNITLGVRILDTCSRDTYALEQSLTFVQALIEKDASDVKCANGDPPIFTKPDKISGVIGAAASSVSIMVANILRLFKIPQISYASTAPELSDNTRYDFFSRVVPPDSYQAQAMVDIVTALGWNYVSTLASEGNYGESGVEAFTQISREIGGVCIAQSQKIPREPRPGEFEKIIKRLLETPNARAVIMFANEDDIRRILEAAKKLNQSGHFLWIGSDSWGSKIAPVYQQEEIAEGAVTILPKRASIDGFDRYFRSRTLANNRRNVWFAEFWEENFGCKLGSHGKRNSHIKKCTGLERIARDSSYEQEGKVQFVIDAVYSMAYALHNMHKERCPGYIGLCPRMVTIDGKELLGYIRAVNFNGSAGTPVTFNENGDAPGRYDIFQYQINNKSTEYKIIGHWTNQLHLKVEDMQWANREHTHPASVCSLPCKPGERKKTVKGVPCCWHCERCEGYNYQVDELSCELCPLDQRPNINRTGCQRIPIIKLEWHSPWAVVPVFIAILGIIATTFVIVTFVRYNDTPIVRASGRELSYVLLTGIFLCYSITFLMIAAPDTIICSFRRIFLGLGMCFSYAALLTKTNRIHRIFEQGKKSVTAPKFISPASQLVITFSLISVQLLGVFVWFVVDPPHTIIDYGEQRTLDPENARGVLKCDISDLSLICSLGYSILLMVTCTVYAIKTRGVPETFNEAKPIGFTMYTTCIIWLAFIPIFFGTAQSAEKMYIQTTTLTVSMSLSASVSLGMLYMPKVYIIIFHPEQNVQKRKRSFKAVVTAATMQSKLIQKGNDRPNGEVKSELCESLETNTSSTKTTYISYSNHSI

Q: With `Cn1c(=O)c2cn(-c3ccccc3)cc2n(C)c1=O` as the molecule, how does the z-score read?
A: The z-score was -0.529.

Q: For `CC(C)CC(=O)NCC(C)NC(=O)CC(C)C` (stereo not given), which z-score is on record?
A: Its z-score is 0.0425.

Q: Which z-score does the source give for `CCn1c(CC(C)C)n[nH]c1=S` here?
A: Its z-score is 0.226.

Q: Which z-score does the source give for `Cc1cc(C)nc(SCc2nnc(SCc3ccccc3Cl)o2)n1` here?
A: Its z-score is -0.23.

Q: Which z-score does the source give for `COc1ccc(-c2noc(CCC(=O)N3CCC(C)CC3)n2)cc1` here?
A: The z-score was -0.232.

Q: Which z-score does the source give for `Cc1ccc(-c2nnn(CC(=O)N(c3ccccc3F)C(C(=O)NCC3CCCO3)c3c[nH]c4ccccc34)n2)cc1` (stereo not given) here?
A: Its z-score is -0.262.

Q: With `O=C(CSc1nc(-c2ccco2)cc(C(F)(F)F)n1)Nc1ccc(C(=O)N2CCOCC2)cc1` as the molecule, how does the z-score read?
A: Its z-score is -0.356.

Q: For `CN1CCN(c2ccc(Cl)cc2NC(=O)c2ccc(S(=O)(=O)N(C)C)cc2)CC1`, which z-score is on record?
A: The z-score was 0.0426.

Q: `Cc1ccc(Oc2nccc(-c3ccc(Cl)cc3)n2)cc1` was tested. Which z-score did it give?
A: Its z-score is 0.323.

Q: `O=C(CSc1ccc(Cl)cc1)OCc1nnc(-c2ccccc2)o1` was tested. Which z-score did it give?
A: The z-score was 0.995.

Q: For `CCCCN(CC)S(=O)(=O)N1CCC(C(=O)NCCCN2CCOCC2)CC1`, which z-score is on record?
A: Its z-score is 0.383.

Q: `Cc1cc(C)n(C(=O)Cn2nc(C(F)F)cc2C)n1` was tested. Which z-score did it give?
A: The z-score was 0.339.

Q: For `CCOC(=O)/C=C1\CC(=O)Nc2cc(C)c(C)cc2N1`, which z-score is on record?
A: The z-score was 0.197.

Q: With `COc1cccc2c(C)nc(Nc3nc(CSc4nnc(C)s4)cc(=O)[nH]3)nc12` as the molecule, how does the z-score read?
A: Its z-score is 0.0201.

Q: For `COC(=O)CSc1nnc(-c2cccnc2)n1-c1cccc(OC)c1`, which z-score is on record?
A: The z-score was 0.978.

Q: With `O=C(c1cc(-c2ccncc2)nc2ccc(Br)cc12)N1CCN(c2ccccn2)CC1` as the molecule, how does the z-score read?
A: Its z-score is -0.181.

Q: Which z-score does the source give for `Cc1cc(N2CCN(C(=O)c3ccco3)CC2)n2nc(C)c(-c3ccccc3)c2n1` here?
A: The z-score was -0.567.

Q: `COC(=O)c1cc(OC)c(OC)cc1NC(=S)N1CCC(C(N)=O)CC1` was tested. Which z-score did it give?
A: The z-score was -0.145.

Q: `CN1C(=O)c2cccc3c(S(=O)(=O)NCc4ccco4)ccc1c23` was tested. Which z-score did it give?
A: Its z-score is 0.516.

Q: For `CCc1ccc(C(C)NC(=O)Cn2cnc3c(=O)n(C)c(=O)n(C)c32)cc1` (stereo not given), which z-score is on record?
A: Its z-score is -0.0504.

Q: How did the z-score turn out when `CCOc1ccc(-n2cnnn2)cc1S(=O)(=O)NC1CC1` was run?
A: Its z-score is 0.0855.

Q: With `O=C(Nc1ccc(Cc2ccc(NC(=O)C3CC3)c(O)c2)cc1O)C1CC1` as the molecule, how does the z-score read?
A: Its z-score is -0.405.

Q: `CCCn1c(CNc2ccc(Br)cc2)nc2ccccc21` was tested. Which z-score did it give?
A: The z-score was -1.43.

Q: With `Cc1cc(=O)n2cc(-c3ccccc3)nc2[nH]1` as the molecule, how does the z-score read?
A: Its z-score is -0.318.

Q: `C=CCc1cc(/C=N\NC(=O)CSc2nnc(CCCc3ccc(OC)c(C)c3)o2)cc(OC)c1O` was tested. Which z-score did it give?
A: The z-score was -0.175.

Q: Which z-score does the source give for `CC(=O)N/N=C/c1cc(C)n(-c2ccc(Br)cc2)c1C` here?
A: Its z-score is -0.334.

Q: `COc1ccc(/C=C/C(=O)NC(=S)NNC(=O)c2c(-c3ccccc3)noc2C)cc1` was tested. Which z-score did it give?
A: The z-score was -1.66.

Q: Which z-score does the source give for `CCOC(=O)C1=C(C)C2C3C(=O)N(c4ccc(C)cc4C)C(=O)C3C1(C)C1C(=O)N(c3ccc(C)cc3C)C(=O)C21` (stereo not given) here?
A: The z-score was -0.165.

Q: For `CCC(CC)C(=O)Nc1cc(C)c2c(=O)oc3ccccc3c2n1`, which z-score is on record?
A: The z-score was 0.182.

Q: For `CCCn1nnc(NC(=O)c2ccccc2Br)n1`, which z-score is on record?
A: Its z-score is 0.283.

Q: Which z-score does the source give for `CCCOc1ccc(/C=N/NC(=S)Nc2ccccc2[N+](=O)[O-])c(O)c1` here?
A: Its z-score is 0.135.

Q: Which z-score does the source give for `c1ccc2c(c1)OCC(c1nnc3sc(-c4cnccn4)nn13)O2` (stereo not given) here?
A: Its z-score is -0.402.

Q: `CN(C)S(=O)(=O)N1CCN(C(=O)N2CCCCC2)CC1` was tested. Which z-score did it give?
A: The z-score was -0.112.

Q: How did the z-score turn out when `CCOC(=O)C(NCCCCl)c1ccccc1` (stereo not given) was run?
A: The z-score was 0.0382.

Q: Which z-score does the source give for `COc1ccc(NC(=O)C2CCN(C(=O)c3cccs3)CC2)cc1OC` here?
A: The z-score was -0.079.

Q: With `CNC(=O)CN(c1cc(C)ccc1C)S(C)(=O)=O` as the molecule, how does the z-score read?
A: Its z-score is 0.318.

Q: How did the z-score turn out when `OC(COc1ccc2ccccc2c1Cl)CN1CCOCC1` (stereo not given) was run?
A: The z-score was -0.0833.

Q: `O=C1CCC(=O)N1CN(C(=O)c1ccco1)c1ccc(Cl)c(Cl)c1` was tested. Which z-score did it give?
A: Its z-score is 0.0507.

Q: How did the z-score turn out when `CCSC1=NC(=O)/C(=C2/C=Cc3ccccc3N2CC)S1` was run?
A: Its z-score is 0.17.

Q: For `COC(=O)c1[nH]c2ccc(Br)cc2c1NC(=O)Oc1ccccc1`, which z-score is on record?
A: The z-score was -0.126.

Q: Which z-score does the source give for `Cc1cc(=O)n(CCO)c(O)c1C#N` here?
A: Its z-score is -0.121.

Q: Which z-score does the source give for `O=C(COC(=O)c1cc([N+](=O)[O-])ccc1NCc1ccccc1Cl)NCC(F)(F)F` here?
A: Its z-score is -0.136.

Q: With `Cc1nnsc1NC(=O)OCC(C)(C)C` as the molecule, how does the z-score read?
A: The z-score was -0.0133.

Q: For `CCOC(=O)c1ccc(N2C(=O)CC(N3CC(C)OC(C)C3)C2=O)cc1` (stereo not given), which z-score is on record?
A: Its z-score is -0.00234.

Q: With `O=C(c1ccc2c(c1)OCO2)N1CCN(c2ccc(Cl)cc2)CC1` as the molecule, how does the z-score read?
A: Its z-score is -1.39.

Q: `CC1=C(C#N)C(Nc2cccc(C)n2)(C(F)(F)F)C(=O)N1` (stereo not given) was tested. Which z-score did it give?
A: The z-score was -0.55.

Q: `COC(=O)CC1C(=O)NCCN1C(=S)Nc1cccc(C)c1` (stereo not given) was tested. Which z-score did it give?
A: Its z-score is 1.08.

Q: How did the z-score turn out when `O=C(Cc1cccc2ccccc12)Nc1ccc2oc(-c3ccccc3)nc2c1` was run?
A: The z-score was 0.245.

Q: How did the z-score turn out when `O=C(Nc1sccc1C(=O)NCc1ccco1)c1cccnc1` was run?
A: Its z-score is -1.82.

Q: `O=C(O)c1cccc(N2C(=O)C3CC=C(Cl)CC3C2=O)c1` (stereo not given) was tested. Which z-score did it give?
A: The z-score was -0.289.

Q: `COC(=O)/C=C1\C(=O)N(c2nc3ccc(OC)cc3s2)C(=S)N1c1ccc(F)cc1` was tested. Which z-score did it give?
A: Its z-score is 0.0125.

Q: How did the z-score turn out when `NC(=O)C1CCCN(C(=O)NC2CCCCC2)C1` (stereo not given) was run?
A: Its z-score is -0.503.

Q: How did the z-score turn out when `CCCC(=O)N(Cc1cc2cc(C)ccc2[nH]c1=O)c1ccccc1OC` was run?
A: Its z-score is -1.35.

Q: How did the z-score turn out when `CC(OC(=O)c1cccc(N2C(=O)c3ccccc3C2=O)c1)C(=O)Nc1ccc(N(C)C)cc1` (stereo not given) was run?
A: Its z-score is -0.193.

Q: For `Cc1nnc(SCCn2c(N3CCC(C)CC3)nc3c2c(=O)[nH]c(=O)n3C)s1`, which z-score is on record?
A: The z-score was 0.362.

Q: `COc1cccc(OCc2nc3ccccc3[nH]2)c1` was tested. Which z-score did it give?
A: Its z-score is 1.49.

Q: With `Cc1nccn1CC(=O)N/N=C/c1cccc(O)c1` as the molecule, how does the z-score read?
A: Its z-score is -0.151.

Q: How did the z-score turn out when `Cc1ccc(CNC(=O)C(=O)NCC2OCCN2C(=O)c2cccs2)cc1` (stereo not given) was run?
A: The z-score was -0.105.

Q: `CCc1ccccc1NC(=O)c1ccc(F)c(S(=O)(=O)N2CCC(C(N)=O)CC2)c1` was tested. Which z-score did it give?
A: Its z-score is 0.0987.

Q: For `COc1ccc(C(=O)N(Cc2ccco2)Cc2cc3cc(C)ccc3[nH]c2=O)cc1OC`, which z-score is on record?
A: The z-score was -0.268.

Q: Which z-score does the source give for `COc1cc(S(=O)(=O)N2CCCCCC2)ccc1-n1cnnn1` here?
A: Its z-score is 0.116.

Q: With `COc1ccc(CC2S/C(=C(\C#N)C(=O)NCc3ccco3)N(c3ccc(C)cc3)C2=O)cc1` (stereo not given) as the molecule, how does the z-score read?
A: The z-score was 0.758.

Q: How did the z-score turn out when `O=C(COc1ccc(S(=O)(=O)NCc2ccccc2)cc1Cl)NCC1CCCO1` (stereo not given) was run?
A: Its z-score is -0.149.

Q: `O=C(Nc1ccccc1)c1ccc(Br)c(S(=O)(=O)Nc2cccnc2)c1` was tested. Which z-score did it give?
A: Its z-score is 0.107.

Q: For `CCCCOC(=O)NC1CCS(=O)(=O)C1` (stereo not given), which z-score is on record?
A: The z-score was -0.0674.

Q: With `Cc1c(NC(=O)Cn2cnc3c(=O)n(C)c(=O)n(C)c32)cccc1-c1nc2ccccc2o1` as the molecule, how does the z-score read?
A: The z-score was 0.183.

Q: With `CCN(CC)S(=O)(=O)c1cccc2nsnc12` as the molecule, how does the z-score read?
A: The z-score was 0.377.

Q: With `Cc1ccc(C(=O)CCNc2ccc(Cl)cc2)o1` as the molecule, how does the z-score read?
A: Its z-score is -0.157.

Q: For `COc1ccc(OC)c(NC(=O)C(=O)/C=C(\O)c2cc(OC)ccc2OC)c1`, which z-score is on record?
A: The z-score was 0.111.

Q: With `CC(Cc1ccccc1)NC(=O)CSc1nc2nc3c(cc2c(=O)n1-c1ccccc1)COC(C)(C)C3` (stereo not given) as the molecule, how does the z-score read?
A: Its z-score is 0.586.
